In all, about 52,000 compounds went through this assay and about 4,300 (8.3%) were called active. No stated cut-off is given here; in the data, active means survival mostly below about 52% (no sharp cut-off); inactive means mostly above about 56%. Some of the results follow.
tested on: DeltatarO mutant; assay: growth inhibition of S. aureus wild type versus tarO mutant, primary screen, teichoic acid synthesis inhibitors, RN4220, OD600 (AID 463173); conditions: OD600, 18 h, stronger effect = lower value, screened at 18.75 µg/mL (by protocol)

Compound | survival
CCc1ccccc1NC(=O)C1CCN(C(=O)N2CC(C)Oc3ccc(Cl)cc32)CC1 (centres undefined) | active: 55%
COc1ccc(CNC(=O)CCn2nc(C)c3c(C)n(-c4ccccc4)nc3c2=O)c(OC)c1 | inactive: 78%
Cc1cccc(NC(=O)c2cc(S(=O)(=O)N3CCN(c4ccccc4F)CC3)ccc2F)c1C | inactive: 84%
CNC(=O)Cn1c(=O)c2cccn2c2ccc(F)cc21 | inactive: 92%
COc1cc(C2c3c(-c4ccc(C)cc4)n[nH]c3C(=O)N2c2ccc(F)cc2)ccc1O (centres undefined) | inactive: 95%
O=C(CCNS(=O)(=O)c1cccc2nsnc12)NCc1ccccc1 | inactive: 54%
CC(C)CNc1ncnc2c1nnn2C | inactive: 95%
COc1ccc(CNC(=O)c2ccc3nc(CCc4ccccc4)oc3c2)c(OC)c1 | inactive: 135%
Cc1c(Cl)cccc1-n1ncc(C(=O)NCc2cccs2)c1C1CCN(C(=O)OC(C)(C)C)CC1 | inactive: 95%
COC(=O)c1c(NC(=O)c2cc(OC)c(OC)c(OC)c2Br)sc2c1CCC(C)C2 (centres undefined) | inactive: 46%
Cc1cc(=O)n(Cc2cccc(F)c2)c2c1c(C)nn2-c1cccc(F)c1 | inactive: 118%
CCc1cccc(CC)c1-n1nnc2c(sc3nc(C)cc(C)c32)c1=O | inactive: 83%
Cc1ccccc1CN1c2ccccc2-c2nc(SCC(N)=O)ncc2S1(=O)=O | inactive: 85%
O=C(CSc1nc(-c2ccc(F)cc2)[nH]c1-c1ccccc1)Nc1ccccc1 | inactive: 67%
Clc1ccc(OCc2nc3ccccc3n2Cc2ccccc2)c(Cl)c1 | active: 14%
N#C/C(=C/c1cn(Cc2ccccc2Cl)c2ccccc12)C(=O)Nc1cccc(Cl)c1 | inactive: 92%
COc1ccc(OC)c(C2C(C(=O)N3CCCCC3)=C(C)Nc3nc4ccccc4n32)c1 (centres undefined) | inactive: 63%
CC(C)(C)c1ccc(CN(Cc2ccco2)c2cnc(S(C)(=O)=O)nc2C(=O)Nc2ccc(F)cc2)cc1 | inactive: 102%
Cc1cc(C)c(NC(=O)Cn2c(=O)nc(-c3ccccc3)c3cc(Cl)ccc32)c(C)c1 | inactive: 75%
COc1cc(NC(=O)N2CCC3(CC2)Nc2cc(F)ccc2-n2cccc23)cc(OC)c1OC | inactive: 105%

Compound | survival
COc1ccccc1NC(=O)C1CCN(C(=O)c2ccccc2)CC1 | inactive: 95%
COc1ccc2c(c1)N(C)/C(=C1/SC(=O)N(c3ccccc3)C1=O)S2 | inactive: 94%
COCCn1ccc2c(OCC(=O)Nc3ccccc3F)cccc2c1=O | active: 25%
O=C(c1cc(-c2ccccc2)on1)N1CCCCC1 | inactive: 95%
CCOC(=O)N1CCc2c(sc3c2c(=O)n(CCc2ccccc2)c(=O)n3CC(=O)Nc2cccc(C)c2)C1 | inactive: 89%
Cc1ccc(C)c(NC(=O)c2nn(C)c3c2CS(=O)(=O)c2ccccc2-3)c1 | inactive: 78%
CC(C)(C)C1CCc2c(sc3nnn(CCOc4ccccc4)c(=O)c23)C1 (centres undefined) | inactive: 72%
COc1cc(NC(=O)c2nc3ccccc3nc2N2CCCCC2)cc(OC)c1OC | inactive: 87%
Cc1cccc(-c2nc(CSCC(=O)NCCc3ccc(Cl)cc3)c(C)o2)c1 | active: -7%
CC1CCCN(C(=O)C2CCN(CC3CC=CCC3)CC2)C1 (centres undefined) | inactive: 109%
Cc1cccc(-c2nnc(SCC(=O)OC(C)C)n2C)c1 | inactive: 67%
Cc1ccc(-c2nn(CC(=O)NC3CCCC3)c3c2cnc2ccccc23)cc1 | inactive: 118%
Cc1ccc(C)c(NC(=O)CN2C(=O)c3cccnc3Oc3ccc(C)cc32)c1 | inactive: 80%
COc1ccccc1CNC(=O)C1CCN(S(=O)(=O)c2ccc3c(ccn3C)c2)CC1 | inactive: 126%
NC(=O)Cc1nnc(-c2ccccc2)c(-c2ccccc2)n1 | inactive: 78%
CCCCn1c(NCc2cc(Br)ccc2O)nc2ccccc21 | active: 42%
COC(=O)c1c(-c2cccs2)csc1NC(=O)c1ccc(OC)c(OC)c1 | inactive: 71%
Cc1cccc(NC(c2ccccc2C)c2ccc3ccc(C)nc3c2O)n1 (centres undefined) | active: 0%
CCNC(=O)C1CCN(c2nnc(C)c3c(C)n(-c4ccc(OC)cc4)nc23)CC1 | inactive: 80%
CN1C(=O)/C(=C/C=C2\SCCN2C)OC1=S | inactive: 63%

Compound | survival
O=S(=O)(NC1CC1)c1cccs1 | inactive: 93%
Cc1cc(C)n(-c2nc3cc(Cl)ccc3nc2Nc2ccc(CC(=O)O)cc2)n1 | inactive: 127%
COc1ccc2nc(NC(=O)c3nc(SCc4ccccc4F)ncc3Cl)sc2c1 | inactive: 71%
CC1=C(C(=O)Nc2ccccc2)C(c2ccncc2)n2nc(SCc3ccccc3F)nc2N1 (centres undefined) | inactive: 93%
CCC(C)Nc1oc(-c2ccc(COc3ccc(Cl)cc3)o2)nc1C#N (centres undefined) | inactive: 56%
O=C(Nc1ccc(OCc2cc(=O)n3ccccc3n2)cc1)c1ccccc1Cl | inactive: 60%
CCc1nnc(NC(=O)c2c(O)c3ccccc3[nH]c2=O)s1 | inactive: 84%
Cc1cccc(OCC(O)Cn2c(=N)n(CCN3CCCCC3)c3ccccc32)c1 (centres undefined) | inactive: 86%
CCN(CC)c1nc2c(S(=O)(=O)c3cccc(Cl)c3)nnn2c2ccsc12 | inactive: 62%
CCC(C)NC(=O)CSc1nc2c(sc3ccccc32)c(=O)n1CCc1ccc(OC)c(OC)c1 (centres undefined) | inactive: 66%
O=C(NC1CC1)C1CCN(C(=O)NCc2ccccc2)CC1 | inactive: 66%
CCc1ccc(CN(Cc2ccco2)C(=O)COc2ccc(Cl)c(C)c2)cc1 | active: 38%
Cc1ccc2c(c1)NC(=O)c1cccnc1O2 | inactive: 94%
Cc1ccc(-c2nc(CS(=O)(=O)CC(=O)NCCc3ccccc3)c(C)o2)cc1 | inactive: 100%
COc1ccc(S(=O)(=O)c2c(SC)nn(CC(=O)Nc3cccc(C)c3C)c2N)cc1 | inactive: 92%
Cc1nnc(SCc2ccc(Cl)cc2Cl)o1 | inactive: 80%
COc1ccc(CNC(=O)Cn2nc(N3CCN(c4ccccc4)CC3)ccc2=O)c(OC)c1 | active: -2%
COC(=O)c1cccc(NC(=O)c2nsc3ccccc23)c1 | active: -1%
COc1ccc(CCNC(=O)c2ccc3c(c2)N(Cc2ccccc2F)C(=O)c2ccccc2S3=O)cc1OC (centres undefined) | inactive: 73%

From PubChem BioAssay AID463173 (ICCB-Longwood Screening Facility, Harvard Medical School, 2010)
